# Data from the supplement of paper PMC3334620.
# Whole data set: some 33,000 sequences, median “E-score (-0.5 to 0.5)” near -0.016, cut for the highest 2% near 0.31. Some of the results follow.
# Target: Cst6 (UniProt P40535)
# Test: PBM E-score (8-mer binding enrichment) (E-score (-0.5 to 0.5)); higher = stronger / more preferred TF binding; most listed sequences are background and not binding sites
# Conditions: protein concentration: 200 nM; construct: GST-DNA-binding domain
# Outline: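 E-scores (a modified Wilcoxon-Mann-Whitney statistic) were assigned by the Universal PBM Analysis Suite to every ungapped eight-base word pooled with its reverse complement. The input came from universal all-10-mer Agilent arrays made double-stranded by primer extension and probed with GST-tagged yeast transcription factors at about 100-200 nM. Fluorescent anti-GST detected bound protein, and masliner normalised the scans.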
row,Sequence,PBM E-score
1,CAAGGTCC,-0.186
2,AGCTTTCG,-0.219
3,GCACAAGA,0.115
4,TCCCGAGA,-0.0675
5,GTCACCAC,0.373
6,ACCAACGA,-0.113
7,CTTTGGAC,0.0595
8,CAAGCCTA,-0.148
9,ATTCTCGG,0.0985
10,CACTAGCG,-0.0495
11,CCAGGGTA,-0.198
12,GCGGGCTA,-0.179
13,GATTACTA,0.173
14,AAACCCCG,0.00659
15,ACGAGCAT,-0.0556
16,CCGTACTA,0.141
17,CATATCAC,0.176
18,ATTGTAGC,0.0304
19,AGGTATCA,-0.115
20,ATCTATCC,-0.00634
21,CCCACTCA,-0.104
22,CCTAGTTA,-0.0163
23,CATCGTAG,0.00214
24,ACGCTTAC,-0.00275
25,ACGAGTCC,-0.167

row,Sequence,PBM E-score
1,GGCCATAC,-0.076
2,GGACCAAA,0.0638
3,ACTAAGAA,0.0236
4,AGGAACAA,-0.0886
5,TACATTGA,0.192
6,TATGAGGA,0.0397
7,AGTTCGGC,-0.00229
8,ACGTTACG,0.279
9,TATCCCAA,0.00913
10,ACGACACG,0.0167
11,GTAACCCA,0.193
12,AGACTTAG,-0.238
13,AACCGACC,-0.054
14,ATGCTGAG,-0.248
15,CAACGCAG,-0.272
16,GAATAACC,-0.112
17,GCCTGAAA,0.127
18,GCGCACCC,-0.193
19,ACACACGG,-0.00142
20,CGTCGGAG,-0.154
21,GGGCGCCC,-0.0491
22,CACGTCTC,-0.097
23,ATAAACCG,0.0517
24,CTAATGCA,0.186
25,ACCCTTTC,-0.0516

row,Sequence,PBM E-score
1,ACAGACGC,-0.104
2,GAACGTGA,0.0338
3,GCCTCGTA,0.204
4,CACCTGCA,-0.114
5,GTAGCCGA,-0.191
6,CATGCTAA,0.00082
7,GACGCTCC,-0.102
8,GAATCACC,0.0583
9,GTATCGCA,-0.116
10,CGGGACCG,-0.291
11,ACTAGACT,-0.218
12,AGTGTCAA,0.141
13,CAGATATC,-0.0267
14,ACGGTGCC,0.116
15,ACAAAGTC,-0.126
16,CCGCTGAC,0.065
17,AGTGAAAA,0.162
18,ACCTAGGT,-0.287
19,CCCGCACG,-0.0726
20,CAGGTTTA,-0.0603
21,ATGAGAAA,0.167
22,TAAGACGA,-0.0639
23,AGCGATGA,0.146
24,AATAAGCC,-0.0423
25,ACTGGTCT,-0.225

row,Sequence,PBM E-score
1,CGCAGTTA,0.0733
2,CCGCCTGA,-0.113
3,ATGAGCAT,0.174
4,CCAGGCCC,-0.323
5,ATTGCCCC,-0.136
6,CCTACTAC,-0.106
7,ACATCACA,0.328
8,GCGTCAGA,0.313
9,GCCGATTA,0.0737
10,AACTACTA,0.12
11,CAGAGTGG,-0.131
12,AGAAACAG,0.0873
13,AGACGCCT,-0.0063
14,GATTACCA,0.0453
15,AAAGTAGT,0.13
16,CATTAGGG,-0.144
17,ACGTAGTG,0.142
18,TCAATCGA,0.249
19,ATCCCAAA,0.0214
20,ATCAAAAG,0.142
21,AAGACGCC,-0.00396
22,CTAATATA,0.302
23,AGGCCAGG,-0.308
24,CTGTCAAG,-0.12
25,GCTTTACC,0.0079

row,Sequence,PBM E-score
1,CCTCAAAA,0.0169
2,CTGACAAG,0.0332
3,GGAACCCC,-0.368
4,GGCCTACC,-0.282
5,TAACTGGA,-0.0202
6,GCCGTGCA,0.279
7,CCTCGTAC,-0.0456
8,AACTTTTA,0.247
9,ATGAGTAC,0.0463
10,CCTAGGTC,-0.201
11,CCTCTTAA,0.124
12,CATTGCTA,0.185
13,CCACTACA,0.0554
14,AGGGAGAA,-0.16
15,CAACCAAA,0.0452
16,AACTCTAC,-0.156
17,ACAAGTAG,-0.24
18,CGTAAGTA,0.262
19,AGATAAGC,0.0952
20,CCCAAAGG,-0.172
21,CTCACATC,0.0865
22,AGTAAGCC,-0.121
23,ATTTCGCA,0.0702
24,AAGGTCTG,-0.159
25,CCAATTCG,0.0572

row,Sequence,PBM E-score
1,AACCGCCG,0.1
2,AACAGGAC,0.0447
3,AGACAATG,0.028
4,CATATATA,0.272
5,GAGCTACA,-0.194
6,AGGGACCC,-0.304
7,CCTGAGAC,-0.303
8,ACGATCGG,-0.127
9,CGCCGTTC,0.228
10,TCCTTTCA,0.119
11,AGTAAAGC,0.0858
12,AGGTGTCC,-0.165
13,AAGAAAGT,0.153
14,GGTCATCA,0.247
15,ACTCACGC,0.0424
16,CATCGTAA,0.206
17,ACTCTATA,0.0999
18,GTGCAATA,0.0163
19,AAATGCGC,0.0552
20,GACCCATA,-0.0639
21,GATAATGA,0.189
22,AACCGTTA,-0.0371
23,ATCGACTA,-0.0453
24,TATCAGCA,0.052
25,CAAGATGA,0.0421

row,Sequence,PBM E-score
1,ACCCAAGG,-0.00867
2,TAACGGGA,-0.0596
3,ACGGAACT,0.063
4,AGAGATCA,-0.0737
5,CTGTAATC,-0.0108
6,ATCGAAAT,0.129
7,CAAGTTCG,-0.156
8,ACTCCGTA,-0.0531
9,AGACCAGC,-0.339
10,CAAGATAA,0.158
11,ATATGTAA,0.225
12,ATAATGGG,0.0959
13,CGGACGAC,-0.178
14,GCAGTCCA,-0.103
15,ATTGTGGG,-0.22
16,AGCGCGAT,0.0797
17,CTTATCGC,-0.1
18,TGGCACCA,-0.196
19,GACCGCAC,-0.044
20,ACGGTTCC,-0.0941
21,AGACGTTC,-0.0634
22,ATGCGCCA,-0.0402
23,ACCTAAAG,0.0272
24,CCAAACCG,-0.0787
25,GTCAAGAC,-0.0494

row,Sequence,PBM E-score
1,GCTCCGAC,-0.282
2,ATTCTGCA,0.148
3,ATCTGGGC,-0.19
4,AGCTCAGA,-0.0663
5,CAGGTTCC,-0.289
6,GGTCTTAC,0.0159
7,ACTTGGCC,-0.0941
8,AATATGGA,0.00652
9,ATACAGCC,-0.059
10,CACCCCGC,-0.0908
11,ACGCACCT,-0.123
12,CTTGTGAC,0.217
13,ATGGACCG,-0.136
14,CCATACCA,-0.171
15,CATGGTTC,0.0175
16,ATTGAGGC,0.0647
17,CATCAATC,0.214
18,AGTGTGTG,-0.0737
19,GAGGAACC,-0.125
20,CGCCTTCA,-0.246
21,AACTGGAA,-0.0303
22,CCGCTTGC,-0.0102
23,CTAAACTC,-0.0924
24,TCATTACA,0.368
25,ATTACATA,0.396

row,Sequence,PBM E-score
1,AGATTACT,0.144
2,CGGGCAGA,-0.161
3,CACTCAAA,0.0561
4,GAACAACA,0.0633
5,AGAAGACG,0.114
6,CAGTGCGG,0.0412
7,CTTTCTAC,0.0658
8,GGGCAATA,-0.0422
9,ATATCAGC,-0.0588
10,CGACTTTA,-0.0726
11,TGAATGAA,0.251
12,AAAGACGG,0.0165
13,AACGTGTA,-0.0153
14,GCGGTGTA,-0.0289
15,CTAGAAAG,0.074
16,AGATACCT,-0.168
17,AAGCGAAA,0.062
18,GACGGCGA,0.191
19,ACATTCCG,-0.0588
20,AACGAAGT,-0.079
21,CTCAGCAA,0.0595
22,AACACATG,0.121
23,CAGGGCTA,-0.104
24,AGTCTATA,0.0299
25,AATTAAAG,0.0757

row,Sequence,PBM E-score
1,ACCGTGGC,-0.195
2,ATGATGAC,0.378
3,AATCAAAG,-0.0209
4,CGCTTCTA,-0.0155
5,TGCTAGCA,0.0927
6,GCACACTA,-0.138
7,CCGCCTTC,-0.25
8,GCGTTTAA,-0.00086
9,AAGTGCGA,-0.0338
10,CCCGAAGG,-0.167
11,CCACTGTC,-0.19
12,AGTTAAAG,0.073
13,ACCATCTG,-0.259
14,CCTTCCTA,-0.177
15,AGAACGCG,0.0341
16,CCAGGAAA,-0.0577
17,CGCGCGAA,0.145
18,GCAGCGAC,-0.112
19,GGTTGCCA,-0.128
20,AGCCCCCG,-0.354
21,ACAAGATA,0.0758
22,CGCCAACG,0.0132
23,GGACGGAA,-0.119
24,CATGTCGC,0.0415
25,AGCTAGGC,-0.263

row,Sequence,PBM E-score
1,ACGTCCCA,-0.0471
2,ACTGCGAA,-0.0466
3,AGGGTAGA,-0.138
4,GGTACGGA,-0.0778
5,ATGACTAC,0.0922
6,CTAAGCGA,-0.235
7,CCAGTAAG,-0.0688
8,GCTCCTAC,-0.133
9,GCGCAGCA,-0.197
10,ATTGAACG,0.169
11,ATCGTTGC,-0.098
12,CTGGTAAA,-0.0568
13,ACGCTTTG,0.0492
14,GCTATCCC,-0.246
15,CAGCCTAG,-0.145
16,AAGCAAAT,0.0467
17,ATCACGAG,0.0226
18,AGGACCAG,-0.277
19,AGCGTAAG,0.0543
20,GGCACAGA,-0.0635
21,AGCCGCCT,0.0766
22,CGCGGACG,0.00248
23,ACTCTGAT,0.108
24,ACTGGCGC,0.131
25,CCCTTCTA,-0.0471

row,Sequence,PBM E-score
1,AAGGCGCA,0.108
2,AGAGAAAC,0.0803
3,CCAATGCA,-0.169
4,GTAAACGA,0.135
5,AACCGGCC,-0.23
6,GTGACTGA,0.153
7,GCGAGAAA,-0.022
8,CTGGGGCA,-0.365
9,TAACGTCA,0.489
10,AGAACCCC,-0.282
11,TGTATGAA,0.107
12,AACTTCAT,0.0891
13,GGGATTCA,-0.196
14,CCTGTTCG,-0.0951
15,CTCGTATA,-0.133
16,CCACCTCG,-0.259
17,ACTGCCTA,-0.0449
18,AAAAGTAA,0.206
19,CCGAAAGG,-0.0268
20,CACGACGG,0.134
21,CGATAGCC,-0.107
22,AGGTGAAT,0.0319
23,ACATCCAG,-0.0936
24,GGAAGGTA,-0.0638
25,GAGTAACC,-7e-05

row,Sequence,PBM E-score
1,GAGGGGCA,-0.203
2,CTGTATGC,-0.159
3,GAAAGATC,-0.0988
4,GGGGGGAA,-0.358
5,CAATGAGG,-0.135
6,AGTGCTAT,-0.169
7,CAATAGGC,-0.0817
8,ACGTGCCA,0.127
9,CCCGCGGG,-0.0798
10,ATCGTCTG,-0.113
11,GGACCGTA,-0.222
12,GCACAGCA,-0.0492
13,AACAACGT,0.157
14,GCACAGAA,0.109
15,AGACGATC,-0.291
16,ACTGGGAC,-0.156
17,CCGGAGTA,-0.0764
18,CATACCAA,-0.0245
19,CTGCGTTC,0.0127
20,AGGCCCAG,-0.214
21,GATAGCCA,-0.0836
22,CATGCTAC,-0.263
23,ACTATATA,0.316
24,CCCGACCC,-0.246
25,ACCGAGTC,-0.162

row,Sequence,PBM E-score
1,ACCGACAG,-0.176
2,CTGATAAA,0.144
3,GCTTGCTA,-0.306
4,AGTTGAGA,-0.143
5,GGCGCCAA,0.151
6,CGTCAGTC,0.269
7,AAGTTTCA,0.131
8,CGCACACA,0.0465
9,GGCGGCCA,-0.112
10,TATACTAA,0.05
11,ATATTCGG,0.0167
12,ATTTACGC,0.129
13,ATAGTAAC,0.094
14,GGACGCAA,0.0196
15,ATGCGTCC,-0.213
16,ACAGTCAA,-0.0565
17,ACGTTACT,0.138
18,CATTGTCG,0.0137
19,AACACAAA,0.0222
